Measurements from patent US8609712B2, “Purification of progesterone receptor modulators” (Wyeth LLC, priority 0205, dated 2013).
Read-outs that look alike come from different tables or passages of the source. Entries with a single value are a further part of the results.

- melting point (choline salt): 159 °C
- melting point (sodium salt): 83.4 °C
Compound: Cn1c(C#N)ccc1-c1ccc2c(c1)C1(CCCCC1)C(=S)N2.[Na]
